# From ChEMBL document CHEMBL1201862, “PubChem BioAssay data set” (2004)
# Tested on: NCI-H322M
# Test: DTP human tumour cell line panel, 48 h
row,SMILES,GI50
1,COc1cc2c(cc1OC)NC(=O)NC(Cc1ccc3c(c1)OCO3)CC2 (configuration not stated),inactive: > 100 µM
2,COc1ccccc1/N=N/c1c(O)c(S(=O)(=O)O)cc2cc(S(=O)(=O)O)ccc12,inactive: > 100 µM
3,NC(=O)CCC(NC(=O)C(F)(F)F)C(=O)O (configuration not stated),inactive: > 100 µM
4,CCN(CC)CCNC(=O)c1ccc(C)c(OCc2ccccc2)c1[N+](=O)[O-],inactive: > 69.2 µM
5,Cc1c(-c2ccc(O)cc2)n(CCCCCCNCCOC(=O)NCCCc2ccc(N(CCCl)CCCl)cc2)c2ccc(O)cc12,inactive: 2.07 µM
6,CC1(C)CC(=O)C2(CC(CSc3ccccc3)C(CS(=O)(=O)c3ccccc3)C2)C(=O)C1 (configuration not stated),inactive: > 100 µM
7,CC(=O)NNc1nc(C)c(C(=O)/C=C/C=C/c2ccccc2)s1,inactive: > 100 µM
8,CN(C)CCn1c(=O)c2ccc(NCCN3CCNCC3)c3c(=O)c4ccccc4n(c1=O)c23,active: 0.815 µM
9,N[C@H]1CCN(c2c(F)cc3c(=O)c(C(=O)O)cn4c3c2Oc2c-4ccc3c2ccc2ccccc23)C1,active: 0.269 µM
10,Nc1cccc2nnccc12,inactive: > 100 µM
11,CCCCCCCCCCCCCCCCNc1ccc2c(c1)OCCOCCOCCOCCO2,inactive: 4.56 µM
12,C1CNCCNCCNCCN1,inactive: > 100 µM
13,CCOC(=O)C(NC(=O)Nc1ccc(C)cc1)(OCC)C(F)(F)F (configuration not stated),inactive: > 100 µM
14,O=C(NCCCl)NCc1ccccc1,inactive: > 100 µM
15,CCOC(=O)C/C(=N\c1cc(C)on1)N(CC)CC.[O-][Cl+3]([O-])([O-])O,inactive: > 100 µM
16,C#CCOCn1cnc2c(N)ncnc21,inactive: > 100 µM
17,O=c1c(Cc2ccc(Cl)cc2)nnc2sc(-c3ccc(-c4ccc(Cl)cc4Cl)o3)nn12,inactive: 31.1 µM
18,CN[C@H](C)[C@@H](OC)c1ccccc1,inactive: > 100 µM
19,CN(C)Cc1cc(/N=N/c2ccccc2)cc(CN(C)C)c1O,inactive: 56.6 µM
20,COc1cc2c(c(OC)c1OC)C(=O)[C@@H](O)[C@H]2NC(N)=O,inactive: > 100 µM
21,COC(=O)c1c(OC(C)=O)ccc2c1c1c(n2Cc2ccccc2)C(=O)c2ccccc2C1=O,inactive: 27.5 µM
22,O=C(O)C1=NN=C(C(=O)O)NN1,inactive: > 100 µM
23,O=C(O)Cn1c(=O)[nH]c(=O)c2c1ncn2Cc1ccccc1,inactive: > 100 µM

row,SMILES,GI50
1,COC(=O)C1C(O)C(C)C(=O)C(C)/C=C\C=C(C)C(=O)Nc2c(C)c(OC(C)=O)c3c(c2O)C(=O)C(C)=C2OCOC(=C23)C(C)=CC(C)(O)C(O)C(C)C1O (configuration not stated),inactive: 71 µM
2,Cc1ccc2[nH]c3[nH]c(=S)[nH]c(=O)c3c2c1,inactive: > 100 µM
3,O=C(O)NC(c1ccccc1)C(NC(=O)c1ccccc1)c1ccccc1 (configuration not stated),inactive: > 100 µM
4,O=Cc1ccc(-c2ccc(-c3ccc(C=O)s3)o2)s1,inactive: 51.6 µM
5,N#Cc1nn(C(N)=O)c(N)c1C#N,inactive: > 100 µM
6,COc1ccc(O)c(C(=O)CCC(=O)O)c1,inactive: > 100 µM
7,COc1ccc(-c2cc(=O)c3cc(O)ccc3o2)c(OC)c1OC,inactive: 48.3 µM
8,CCOC(=O)CCC(C(=O)OCC)n1nnc2cc(Nc3c(C)[n+]([O-])c4cc(Cl)ccc4[n+]3[O-])ccc21 (configuration not stated),inactive: > 100 µM
9,COC(=O)[C@H](C)NC(=O)[C@H](NS(=O)(=O)c1nc2ccccc2s1)c1ccccc1,inactive: 21.6 µM
10,CC(C)(C)OC(=O)N(CCCCNC(=O)OCc1ccccc1)CCCNC(=O)OCc1ccccc1,inactive: > 100 µM
11,CCNC(=S)N/N=C(/C)c1cccc(/C(C)=N\NC(=S)NCC)n1,inactive: 1.95 µM
12,CCOC(=O)c1cc(C2=C(S)N(CC(C)CC)CC2)c(C(=O)CC)[nH]1 (configuration not stated),inactive: 23.9 µM
13,Oc1ncnc2c1CCCN2,inactive: > 100 µM
14,CC(C)=C[C@@H]1C[C@H](n2cc(C)c(=O)[nH]c2=O)ON1CCO,inactive: > 100 µM
15,O=[N+]([O-])c1cccc2nc3ccccc3c(NCCO)c12,active: 0.00541 µM
16,CCOCC(=O)N[C@H]1CCc2cc(OC)c(OC)c(OC)c2-c2ccc(SC)c(=O)cc21,active: < 0.01 µM
17,COc1ccc(C2=C(Cl)c3cc(OC)c(OC)cc3C2OC)cc1OC (configuration not stated),inactive: > 100 µM
18,CN(C)c1ccc(-c2cc(O)c3ccccc3n2)cc1,inactive: > 100 µM
19,Cc1ccc(S(=O)(=O)NC(=O)Nc2cc(Cl)c(S(N)(=O)=O)cc2S(N)(=O)=O)cc1,inactive: > 100 µM
20,CC(=O)OCC1OC(n2c(-c3ccccc3)c(/N=N/c3ccccc3)c(C)c(C#N)c2=S)C(OC(C)=O)C(OC(C)=O)C1OC(C)=O (configuration not stated),inactive: > 100 µM
21,CCOC(=O)C(C)(C)Oc1ccc2c(-c3ccc(Cl)cc3)cc(=O)oc2c1,inactive: > 100 µM
22,CCOC(=O)N1CCN(c2c(C)nc(C)nc2O)CC1,inactive: > 100 µM
23,O=C1C(c2ccccc2)=[N+]([O-])c2cc([N+](=O)[O-])c(/C(Cl)=C/c3ccccc3)cc21,inactive: 54.5 µM

row,SMILES,GI50
1,N#Cc1cccc(C2ON=C(c3ccc([N+](=O)[O-])cc3)N2C23CC4CC(CC(C4)C2)C3)c1 (configuration not stated),inactive: > 100 µM
2,Cc1cc(C)nc(NCCC(O)(P(=O)(O)O)P(=O)(O)O)n1,inactive: > 100 µM
3,Cc1c(OCCCOc2ccc3c(=O)cc(-c4ccccc4)oc3c2C)ccc2c(=O)cc(-c3ccccc3)oc12,inactive: > 100 µM
4,O=C(NCCO)c1c(O)c2ccccc2[nH]c1=O,inactive: > 100 µM
5,COc1ccccc1C(C1=C(O)COC1=O)c1cc2c(cc1OC(C)=O)OCO2 (configuration not stated),inactive: > 100 µM
6,CSc1cnc2ccccc2c1Sc1c[nH]c2ccccc2c1=O,inactive: 15.8 µM
7,O=c1c2cc([N+](=O)[O-])cnc2sn1-c1ccc(Br)cc1,inactive: 29.4 µM
8,COC(=O)N/N=C(\C(=O)Nc1cccc([N+](=O)[O-])c1)c1nc2ccc([N+](=O)[O-])cc2nc1O,inactive: 29.1 µM
9,Cc1ccc(C(=O)Nc2ncn(C3CC(O)C(CO)O3)c(=O)n2)cc1 (configuration not stated),inactive: > 100 µM
10,C1CCC(OC2CSC2)OC1 (configuration not stated),inactive: > 100 µM
11,CCOC(=O)/C=C(/C(=O)OCC)n1cnc2c(=O)[nH]c(NC(C)=O)nc21,inactive: > 100 µM
12,Clc1ccc(C(Cc2cccc(Cl)c2)c2c(Cl)nc(N3CCNCC3)nc2Cl)cc1 (configuration not stated),inactive: 16.8 µM
13,COc1ccc(-c2csc(Cc3nc4c(Br)cc(Br)cc4c(=O)n3-c3ccc(OC)cc3)n2)cc1,inactive: 46 µM
14,O=NN(CCCl)C(=O)NC1CCC(CC2CCC(NC(=O)N(CCCl)N=O)CC2)CC1 (configuration not stated),inactive: 1.88 µM
15,O=C(O)CNc1c2ccccc2[n+]([O-])c2ccccc12,inactive: > 100 µM
16,Cc1nc(N)c(-c2ccccc2)s1,inactive: 40 µM
17,Cc1ccc(N2C=Nn3c(nc4sc5c(c4c3=O)CCCC5)C2)cc1,inactive: 72.3 µM
18,COc1cc(/C=C/C(=O)C(C)(C)C)cc(OC)c1OC,inactive: 29.4 µM
19,O=C(O)C1CCCN1C(=O)c1cc(Cl)ccn1 (configuration not stated),inactive: > 100 µM
20,C=C1c2[nH]c3c([N+](=O)[O-])c(OC)ccc3c2CCN1C(C)=O,inactive: 78.3 µM
21,N#Cc1c(O)c(/N=N/c2ccccc2F)c(=O)n2c1[nH]c1ccccc12,inactive: 21.6 µM
22,Nc1cc2[nH]cnc2c(=O)[nH]1 [DEZAGUANINE],inactive: 169 µM
23,CC(C)c1nc(Cl)c(Cl)c(Cl)n1,inactive: 8.3 µM

row,SMILES,GI50
1,O=C(OC1C2OC(=O)c3cc(O)c(O)c(O)c3Oc3cc4c(c(O)c3O)-c3c(cc(O)c(O)c3O)C(=O)OCC3OC(O)C(OC(=O)c5cc(O)c(O)c(O)c5Oc5cc6c(c(O)c5O)-c5c(cc(O)c(O)c5O)C(=O)OC1C(COC6=O)OC2O)C(OC(=O)c1cc(O)c(O)c(O)c1)C3OC4=O)c1cc(O)c(O)c(O)c1 (configuration not stated),inactive: 13.1 µM
2,COC(=O)CN1Cc2cc(C)cc(c2O)CN(CC(=O)OC)Cc2cc(C)cc(c2O)CN(CC(=O)OC)Cc2cc(C)cc(c2O)C1,active: 0.466 µM
3,CCOc1ccc(/C=C2\N=C(c3ccc([N+](=O)[O-])cc3)OC2=O)cc1,inactive: > 100 µM
4,CCOC(=O)[C@@H]1CCN2CN(c3ccc(OC)cc3)N=C(c3ccccc3)[C@@]12c1ccccc1,inactive: 37.2 µM
5,CCC(C)(O)c1cnc(CC(C)C)c(=O)n1O (configuration not stated),inactive: 49.4 µM
6,C/C=C1\CCC2c3[nH]c4ccccc4c3CCN2C1 (configuration not stated),inactive: > 100 µM
7,Cc1ccccc1Nc1cn(CCOc2ccccc2)c(=O)n(CCOc2ccccc2)c1=O,inactive: > 100 µM
8,O=C(NC1(C(=O)O)CC1c1ccccc1)c1ccccc1 (configuration not stated),inactive: > 100 µM
9,OC(Cc1cc(CC(O)(C(F)(F)F)C(F)(F)F)nc(CC(O)(C(F)(F)F)C(F)(F)F)c1)(C(F)(F)F)C(F)(F)F,inactive: 2.81 µM
10,Cc1cc(C)c(N)c(C)c1N,inactive: > 100 µM
11,COC(=O)[C@]1(c2cc3ccccc3[nH]2)CC2CN(CC(=O)N(C)OC)C1C1OC(C)(C)OC21 (some centres not stated),inactive: > 100 µM
12,O=C(Nc1ccccc1)O/N=C1/CCCC/C1=C\c1ccccc1,inactive: 19.2 µM
13,C=CCN1C[C@H](C)N([C@H](c2ccc(C(=O)NC(CC)CC)cc2)c2cccc(OC)c2)C[C@H]1C,inactive: 89.3 µM
14,Cc1ccc(/C=N/NS(=O)(=O)c2ccccc2)c(C)c1,inactive: > 100 µM
15,COc1ccc(C(=O)/C=C/c2ccc(OCC(=O)O)cc2)cc1,inactive: 51.3 µM
16,CCOC(=O)c1c2ccccc2n2c(=O)n(-c3ccc(OC)cc3)nnc12,inactive: 56.2 µM
17,CCC1(OC(=O)CNC)C(=O)OCc2c1cc1n(c2=O)Cc2cc3ccccc3nc2-1 (configuration not stated),active: 0.112 µM
18,CC(=O)C(O)N1C(=O)C=CC1=O (configuration not stated),inactive: 22 µM
19,CC(C)[C@@H](C)[C@@]1(C)C[C@@H]1[C@@H](C)[C@H]1CC[C@@H]([C@@H]2CC=C3C[C@@H](O)CC[C@]3(C)C2=O)[C@]1(C)CCO,inactive: 13 µM
20,COc1nc2c(c(=O)n1C)NC(C(O)C(O)CO)C=N2 (configuration not stated),inactive: > 10 µM
21,CCCN(CCCC(NC(C)=O)C(=O)NCc1ccccc1)C(=O)NCCCl (configuration not stated),inactive: > 100 µM
22,CN(C)/C=N/c1c2ccccc2nc2ccccc12,inactive: 6.55 µM
23,C/C=C(/COC(C)=O)C(=O)OC1C=C(C=O)C(C)(C)C=C1C (configuration not stated),inactive: > 100 µM

#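 Briefly, cells in 96-well plates were exposed to five compound concentrations for 48 h, and endpoints were estimated by linear interpolation. GI50: concentration for 50% inhibition of growth.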 Activity calls are given as the source filed them. No stated cut-off is given here; in the data, active = GI50 up to about 1.1 µM and inactive = higher.
